Data published in the supplement of paper PMC6135742.
“And” between values parts separate entries of the source, which are not always exact repeats. Equal entries are not always repeated. Structures can show the parent of a compound that is named as a salt. ± gives the standard deviation of the averaged measurements. The full ranking holds about 2,600 compounds; the median of “MBP+ mature oligodendrocyte number relative to DMSO vehicle control” is about -0.34, and the highest 2% start at about 13. The list shows a part of the results.

Each molecule was assayed on jimpy (Plp1 jimpy) mouse iPSC-derived oligodendrocyte progenitor cells (assay: MBP+ mature oligodendrocyte number relative to DMSO vehicle control (SDs above negative control mean); higher = more surviving jimpy oligodendrocytes (rescue)). Conditions: 10 µM; 3 days.
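Further: 10 µM single dose with 3-day oligodendrocyte differentiation.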

Row | SMILES | MBP+ mature oligodendrocyte number
1 | CC(C(=O)O)c1ccc2c(c1)[nH]c1ccc(Cl)cc12 (configuration not stated) [Carprofen] | 3.53
2 | Cc1cccc(C)c1NC(=O)C(C)N (configuration not stated) [Tocainide hydrochloride] | 0.398
3 | C=CCc1cccc(/C=N/NC(=O)CN2CCN(Cc3ccccc3)CC2)c1O | -4.93 ± 1.5
4 | O=C1c2c(O)cccc2C([C@@H]2O[C@H](CO)[C@@H](O)[C@H](O)[C@H]2O)c2cc(CO)cc(O)c21 (some centres not stated) [Aloin] | -4.7
5 | O=C(Nc1cccc(C(F)(F)F)c1)Nc1cc(S(=O)(=O)NC2CC2)ccc1-c1ccsc1 | 18.2
6 | CC[N+](CC)(CC)CCOc1ccc(/C=C/c2ccccc2)cc1 | < -3.97
7 | Cc1ccccc1C(=O)Nc1ccc(C(=O)N2CCCC(O)c3cc(Cl)ccc32)c(C)c1 (configuration not stated) [Tolvaptan] | 4.98
8 | CC(=O)O[C@H]1CC[C@@]2(C)C(=CC[C@@H]3[C@@H]2CC[C@]2(C)C(c4cccnc4)=CC[C@@H]32)C1 [Abiraterone Acetate] | -0.0525
9 | CN(C)C(=O)C(CCN1CCC(O)(c2ccc(Cl)cc2)CC1)(c1ccccc1)c1ccccc1 [Loperamide HCl] | -4.75
10 | CN(C)C(=O)C(CCN1CCC(O)(c2ccc(Cl)cc2)CC1)(c1ccccc1)c1ccccc1 [Loperamide hydrochloride] | -3.62
11 | Cc1c(OCC(F)(F)F)ccnc1C[S@@+]([O-])c1nc2ccccc2[nH]1 [Dexlansoprazole] | 17.2
12 | CC(C(=O)O)c1ccc(-c2ccccc2)c(F)c1 (configuration not stated) [Flurbiprofen] | -0.0169
13 | COc1cc2c(N3CCN(C(=O)Nc4ccc(OC(C)C)cc4)CC3)ncnc2cc1OCCCN1CCCCC1 [Tandutinib (MLN518)] | -5.91
14 | NC(=O)c1cn(Cc2c(F)cccc2F)nn1 [Rufinamide] | 0.263 ± 0.28
15 | Cc1cc(O)c2c(c1)C(=O)c1cccc(O)c1C2=O [Chrysophanic Acid] | 1.29
16 | NC(N)=NC(N)=Nc1cccc(Cl)c1 [1-(m-Chlorophenyl)-biguanide hydrochloride] | 0.973
17 | Nc1nc(CC(=O)Nc2ccc(CCNC[C@H](O)c3ccccc3)cc2)cs1 [Mirabegron] | -3.47
18 | NC[C@@H]1O[C@H](O[C@H]2[C@@H](O)[C@H](O[C@@H]3[C@@H](O)[C@H](N)C[C@H](N)[C@H]3O[C@H]3O[C@H](CO)[C@@H](O)[C@H](O)[C@H]3N)O[C@@H]2CO)[C@H](N)[C@@H](O)[C@@H]1O [Paromomycin sulfate] | 0.396
19 | CC[C@]1(O)C[C@H]2CN(CCc3c([nH]c4ccccc34)[C@@](C(=O)OC)(c3cc4c(cc3OC)N(C=O)[C@H]3[C@@](O)(C(=O)OC)[C@H](OC(C)=O)[C@]5(CC)C=CCN6CC[C@]43[C@@H]65)C2)C1 [Vincristine] | < -6.7
20 | CC[C@]1(O)C[C@H]2CN(CCc3c([nH]c4ccccc34)[C@@](C(=O)OC)(c3cc4c(cc3OC)N(C=O)[C@H]3[C@@](O)(C(=O)OC)[C@H](OC(C)=O)[C@]5(CC)C=CCN6CC[C@]43[C@@H]65)C2)C1 [Vincristine sulfate] | -3.78
21 | COc1ccccc1OCC(O)CO (configuration not stated) [Guaifenesin] | -0.737
22 | Cc1cc(=O)[nH]c(=S)[nH]1 [Methylthiouracil] | 1.53
23 | CC(=O)[C@H]1CC[C@H]2[C@@H]3C=CC4=CC(=O)CC[C@@]4(C)[C@@H]3CC[C@]12C [Dydrogesterone] | 0.153
24 | CN1[C@@H]2CC[C@H]1C[C@@H](OC(=O)c1c[nH]c3ccccc13)C2 [Tropisetron] | 1.96

Row | SMILES | MBP+ mature oligodendrocyte number
25 | COc1ccccc1N1CCN(CCCCN2C(=O)c3ccccc3C2=O)CC1 [NAN-190 hydrobromide] | -1.46
26 | Cc1cccc(C)c1OCC(C)N (configuration not stated) [Mexiletene hydrochloride] | -0.441
27 | Cc1cccc(C)c1OCC(C)N (configuration not stated) [Mexiletine HCl] | 1.76
28 | COc1ccc(/C=C/C(=O)Nc2ccccc2C(=O)O)cc1OC [Tranilast] | 1.25 ± 0.85
29 | CCN(CC)CCNC(=O)c1c(C)[nH]c(/C=C2\C(=O)Nc3ccc(F)cc32)c1C [Sunitinib Malate] | -6.61
30 | CCN(CC)CCNC(=O)c1c(C)[nH]c(/C=C2\C(=O)Nc3ccc(F)cc32)c1C [Sunitinib malate] | -4.36
31 | CCN(CC)Cc1ccc(C(=O)N(CCc2ccccc2OC)[C@@H]2CCNC2)cc1 | -3.89
32 | CCOC(=O)C1=C(COCCN)NC(C)=C(C(=O)OC)C1c1ccccc1Cl (configuration not stated) [Amlodipine] | < -5.15
33 | Oc1ccc(/C=C/c2cc(O)cc(O)c2)cc1 [Resveratrol] | 2.99 ± 2.1
34 | Cc1cc(/C=C/C#N)cc(C)c1Nc1ccnc(Nc2ccc(C#N)cc2)n1 [Rilpivirine] | -6.18
35 | Cc1c(N(C)C)c(=O)n(-c2ccccc2)n1C [Amidopyrine] | 0.501
36 | CCOc1cc2ncc(C#N)c(Nc3ccc(F)c(Cl)c3)c2cc1NC(=O)/C=C/CN(C)C [Pelitinib (EKB-569)] | < -6.7
37 | CCCc1c(-c2ccc(O)cc2)nn(-c2ccc(O)cc2)c1-c1ccc(O)cc1 [1,3,5-tris(4-hydroxyphenyl)-4-propyl-1H-pyrazole] | 4.9
38 | C=C1C(=O)[C@]23[C@H](O)[C@H]1CC[C@H]2[C@@]12CO[C@]3(O)[C@@H](O)[C@@H]1C(C)(C)CC[C@@H]2O [Oridonin] | < -4.81
39 | OC(CNCC(O)C1CCc2cc(F)ccc2O1)C1CCc2cc(F)ccc2O1 (configuration not stated) [Nebivolol] | -5.06
40 | CC[C@H](C)[C@H](N)C1=N[C@H](C(=O)N[C@@H](CC(C)C)C(=O)N[C@H](CCC(=O)O)C(=O)N[C@H](C(=O)N[C@H]2CCCCNC(=O)[C@H](CC(N)=O)NC(=O)[C@@H](CC(=O)O)NC(=O)[C@H](Cc3cnc[nH]3)NC(=O)[C@@H](Cc3ccccc3)NC(=O)[C@H]([C@@H](C)CC)NC(=O)[C@@H](CCCN)NC2=O)[C@@H](C)CC)CS1 [Bacitracin] | 0.491
41 | O=C(CCc1ccc(O)cc1)c1c(O)cc(O)cc1O [Phloretin] | 0.578 ± 1.2
42 | CNCc1ccc(-c2cc(-c3nc(-c4ccc(S(=O)(=O)C(C)C)cc4)cnc3N)on2)cc1 | < -6.35
43 | CN1CCN(CCCN2c3ccccc3Sc3ccc(C(F)(F)F)cc32)CC1 [Trifluoperazine 2HCl] | < -6.01
44 | CN1CCN(CCCN2c3ccccc3Sc3ccc(C(F)(F)F)cc32)CC1 [Trifluoperazine dihydrochloride] | -3.67
45 | CC(S)C(=O)NCC(=O)O (configuration not stated) [Tiopronin] | -0.557
46 | CNC[C@H](O)c1ccc(O)c(O)c1 (racemic) [(±)-Epinephrine hydrochloride] | 0.0316
47 | CNC[C@H](O)c1ccc(O)c(O)c1 [Epinephrine HCl] | 1.29
48 | CNC[C@H](O)c1ccc(O)c(O)c1 [(-)-Epinephrine bitartrate] | -0.753

Row | SMILES | MBP+ mature oligodendrocyte number
49 | CNC[C@H](O)c1ccc(O)c(O)c1 [Epinephrine Bitartrate] | 1.23
50 | C=CC(=O)Nc1cc2c(Nc3ccc(F)c(Cl)c3)ncnc2cc1OCCCN1CCOCC1 [Canertinib (CI-1033)] | -6.61
51 | O=C(NCc1ccccc1)c1csc(Nc2ccncn2)n1 [Thiazovivin] | -3.47
52 | O=C(Nc1ccccc1C(=O)NC1CCCCNC1=O)c1cc2ccccc2s1 (configuration not stated) | 0.61
53 | CCc1cc(Nc2nccc(-c3c(-c4ccc(OC)c(C(=O)Nc5c(F)cccc5F)c4)nc4ccccn34)n2)c(OC)cc1N1CCC(N2CCN(S(C)(=O)=O)CC2)CC1 | 9.27
54 | Nc1ccn([C@H]2CC[C@@H](CO)O2)c(=O)n1 [Zalcitabine] | -0.107
55 | Nc1ccn([C@H]2CC[C@@H](CO)O2)c(=O)n1 [2',3'-dideoxycytidine] | -1.22
56 | CC(=O)c1ccc2c(c1)N(CCCN(C)C)c1ccccc1S2 [Acepromazine maleate] | -3.39
57 | COc1cccc(-c2cc(=O)c3ccccc3o2)c1N | -1.46 and -3.12
58 | CNC(=O)c1cccc(-c2ccc3c(N4CCOC[C@@H]4C)nc(N4CCOC[C@@H]4C)nc3n2)c1 | < -6.01
59 | C=CCNC(N)=S [Allylthiourea] | 8.09
60 | CN(C)CCOC(C)(c1ccccc1)c1ccccn1 (configuration not stated) [Doxylamine Succinate] | -1.2
61 | CN(C)CCOC(C)(c1ccccc1)c1ccccn1 (configuration not stated) [Doxylamine succinate] | 0.0839
62 | C[C@@H](O)[C@H]1C(=O)N2C(C(=O)O)=C(S[C@@H]3CN[C@H](CNS(N)(=O)=O)C3)[C@H](C)[C@H]12 [Doripenem Hydrate] | -2.33
63 | COc1cc2nccc(Oc3ccc(NC(=O)Nc4cc(C)on4)c(Cl)c3)c2cc1OC [Tivozanib (AV-951)] | -6.44
64 | CC(C)(C#N)c1cc(Cn2cncn2)cc(C(C)(C)C#N)c1 [Anastrozole] | 0.458
65 | C(=C\c1ccccc1)/CN1CCN(C(c2ccccc2)c2ccccc2)CC1 [Cinnarizine] | -1.1
66 | C[C@]1(O)C[C@@H](c2nc(-c3ccc4ccc(-c5ccccc5)nc4c3)c3c(N)nccn32)C1 [OSI-906 (Linsitinib)] | < -6.7
67 | C[C@@H]1CCO[C@H]2Cn3cc(C(=O)NCc4ccc(F)cc4F)c(=O)c(O)c3C(=O)N12 | 2.56
68 | O=C(C1CCCCC1)N1CC(=O)N2CCc3ccccc3C2C1 (configuration not stated) [Praziquantel] | 9.39 ± 15
69 | Cc1nc(C#Cc2cccnc2)cs1 [MTEP hydrochloride] | -1.46
70 | CNC(=O)c1cc(Oc2ccc(NC(=O)Nc3cc(C(C)(C)C)nn3-c3ccc4ncccc4c3)c(F)c2)ccn1 [DCC-2036 (Rebastinib)] | < -6.01
71 | OC[C@H]1O[C@H](O[C@]2(CCl)O[C@H](CCl)[C@@H](O)[C@@H]2O)[C@H](O)[C@@H](O)[C@H]1Cl [Sucralose] | -0.269
72 | O=C(O)c1cc(=O)cc(C(=O)O)[nH]1 [Chelidamic acid] | -0.158
